Test results: PubChem BioAssay AID488969 (Vanderbilt High Throughput Screening Facility, 2010)
Over roughly 110,000 compounds, “z-score” has its median near -0.1; the highest 2% begin near 2. Some of the results follow. The source made the active and inactive calls.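 The calls were made as follows: active = z-score in the third read window above 3 or below -3; inactive = the rest.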

What follows are compounds tested against Metabotropic glutamate receptor 8 (Rattus norvegicus) (UniProt P70579) (assay: mGluR8 Gi/Go-coupled signaling modulation – cell-based, rat, thallium flux, HTS, primary screen (AID 488969)). Details: HEK293 rat mGluR8, GIRK (G protein-gated inwardly rectifying potassium channel) thallium flux, FluoZin2; at 10 µM; stronger effect = higher value; submaximal glutamate (EC20) added with thallium.
Sequence of UniProt P70579 (P70579 whole entry, looked up): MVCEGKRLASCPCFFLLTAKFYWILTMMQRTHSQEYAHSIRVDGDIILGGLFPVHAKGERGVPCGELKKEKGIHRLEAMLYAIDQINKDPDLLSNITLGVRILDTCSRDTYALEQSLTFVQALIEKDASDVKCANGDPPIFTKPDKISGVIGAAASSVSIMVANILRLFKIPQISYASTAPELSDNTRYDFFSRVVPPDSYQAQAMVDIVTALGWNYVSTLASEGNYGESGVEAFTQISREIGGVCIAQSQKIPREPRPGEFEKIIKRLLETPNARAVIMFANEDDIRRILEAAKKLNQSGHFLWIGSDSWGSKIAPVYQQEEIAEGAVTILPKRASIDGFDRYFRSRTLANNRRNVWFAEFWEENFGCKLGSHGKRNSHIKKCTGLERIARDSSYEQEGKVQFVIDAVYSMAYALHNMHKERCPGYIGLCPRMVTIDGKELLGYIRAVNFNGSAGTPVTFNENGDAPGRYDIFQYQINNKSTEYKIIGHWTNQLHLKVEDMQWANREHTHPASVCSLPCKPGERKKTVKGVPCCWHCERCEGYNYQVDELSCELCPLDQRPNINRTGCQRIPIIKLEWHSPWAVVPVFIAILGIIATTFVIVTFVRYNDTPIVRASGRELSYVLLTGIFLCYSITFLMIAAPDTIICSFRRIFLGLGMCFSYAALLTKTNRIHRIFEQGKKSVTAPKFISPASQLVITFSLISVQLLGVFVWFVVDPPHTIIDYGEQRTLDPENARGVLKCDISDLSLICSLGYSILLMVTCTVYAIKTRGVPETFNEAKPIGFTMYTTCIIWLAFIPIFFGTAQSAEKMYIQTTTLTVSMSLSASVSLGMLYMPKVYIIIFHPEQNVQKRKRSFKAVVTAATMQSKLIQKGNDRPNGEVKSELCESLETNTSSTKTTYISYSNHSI

| SMILES | z-score |
| --- | --- |
| CC1C(C)C(O)(c2ccccc2)CCN1C (configuration not stated) | 0.788 |
| CCOC(=O)Cc1csc(NC(=O)c2cc3c(s2)CCCC3)n1 | -0.559 |
| CC(=O)c1cccc(NC(=O)c2ccco2)c1 | -0.295 |
| CSc1cnn(Cc2ccccc2)c(=O)c1SCc1ccccc1 | -0.434 |
| CN(/N=C/c1ccncc1)C1=NS(=O)(=O)c2ccccc21 | -0.104 |
| COC(=O)c1ccccc1NC(=O)c1cc2ncc(Br)cn2n1 | -0.044 |
| Cc1ccc(C)c(NC(=O)CSc2nc3[nH]ncc3c(=O)[nH]2)c1 | 0.194 |
| Cc1csc(C2=C(O)CN(c3ccc4c(c3)OCCOCCOCCOCCO4)C2=N)n1 | -0.137 |
| CCOC(=O)C1=C(N)OC2=C(C(=O)CC(C)(C)C2)C1c1cccs1 (configuration not stated) | -0.546 |
| Cc1ccc(S(=O)(=O)N2CCCC2C(=O)NCc2ccco2)cc1 (configuration not stated) | 0.608 |
| C=CCn1c(-c2csc3c2CCC(C)C3)n[nH]c1=S (configuration not stated) | 0.494 |
| O=C1C(c2cc(=O)c3ccccc3[nH]2)=C(O)c2ccccc21 | -0.218 |
| O=C(CCc1nc2ccccc2n1-c1ccccc1)NCCO | -0.0451 |
| CCCN1C(=O)N(C)C(N(O)C(=O)NC)C1(C)C (configuration not stated) | 0.256 |
| Cc1ccc(C(O)(c2ccccc2)c2ccccc2C(C)N(C)C)c(C)c1 (configuration not stated) | 0.319 |
| Cc1ccccc1N1CCN(CCCOc2ccc3c(C)cc(=O)oc3c2)CC1 | 0.285 |
| N/C(=N\OC(=O)COc1ccccc1)c1ccc(Cl)cc1 | -0.224 |
| Cn1c(=O)c2c(nc(N3CCN(c4ccccc4)CC3)n2CCCc2ccccc2)n(C)c1=O | 0.204 |
| Cc1onc(-c2c(F)cccc2Cl)c1C(=O)NC(=S)NC1CCSC1=O (configuration not stated) | -0.17 |
| COC(=O)c1ccccc1NC(=O)NCc1ccco1 | 0.182 |
| CC(=O)c1c(N2CCCC2)nc(=S)n(-c2ccccc2)c1C | -0.0779 |
| O=C(CSc1ccc2nnc(-c3ccccn3)n2n1)N1CCOCC1 | -0.254 |
| COc1cc2[nH]c(=S)n(CCN3CCOCC3)c(=O)c2cc1OC | -0.262 |

| SMILES | z-score |
| --- | --- |
| Cn1ncc2c(=O)n(CC(=O)NC34CC5CC(CC(C5)C3)C4)cnc21 | -0.265 |
| CCOc1ccc(NC(=O)CN(C)c2ccc(S(=O)(=O)N(C(C)C)C(C)C)cn2)cc1OCC | -1.25 |
| O=C(O)CCC(=O)NCc1ccc(C(=O)O)cc1 | 0.0322 |
| COC(=O)c1cc(S(=O)(=O)N2CCC(C)CC2)ccc1F | 0.00732 |
| COc1cc(-c2nnc(-c3cc(OC)c(OC)c(OC)c3)o2)cc(OC)c1OC | -1.02 |
| CC1CCCN(CCCNC(=O)c2coc3nc4ccccc4nc23)C1 (configuration not stated) | 0.00229 |
| OC1(c2ccc3ccccc3c2)CCN(Cc2ccccc2)C1 (configuration not stated) | 2 |
| Cc1cc(N2CCN(C)CC2)nc2ccc(NC(=O)CCC(=O)NCCC3=CCCCC3)cc12 | -2.01 |
| COC(=O)c1ccc(Sc2ccccn2)c([N+](=O)[O-])c1 | -0.0262 |
| C=CCc1cccc2cc(C(=O)NC3=C(C#N)CCC3)c(=O)oc12 | 1.03 |
| COc1ccccc1NC(=O)CCn1c(=O)sc2ccccc21 | 0.642 |
| CCC(=O)Nc1cc(C)c(NC(=O)c2ccco2)cn1 | -0.0069 |
| COC(=O)c1ccc(-n2nnnc2SCc2nn[nH]n2)cc1 | -0.35 |
| CC(Sc1cnc2ccccc2n1)C(=O)O (configuration not stated) | 0.0744 |
| CC(C)Cn1c2c(c(O)c(C(=O)Nc3ncccc3O)c1=O)CCCC2 | active: -4.45 |
| OC1(c2cccc(C(F)(F)F)c2)CCN(Cc2nnnn2CCc2ccccc2)CC1 | -0.00667 |
| CC1CCCCN1CCNC(=O)CC1Oc2ccccc2NC1=O (configuration not stated) | -0.354 |
| CCOc1ccc(NC(=O)CN2C(=O)C3CC=CCC3C2=O)cc1 (configuration not stated) | 0.437 |
| C#CCOC(=O)Nc1ccc(=O)n(Cc2c(Cl)cccc2Cl)c1 | -0.298 |
| O=C1CC(c2ccco2)Cc2nc(N3CCN(Cc4ccc5c(c4)OCO5)CC3)ncc21 (configuration not stated) | -0.464 |
| O=C(c1ccccc1)c1ccc(C(=O)N2CCN(c3ccc(F)cc3)CC2)o1 | -1.82 |
| COc1ccc(NC(=O)Nc2ccccc2C(N)=O)cc1OC | 0.255 |
| CCn1c(=O)c([N+](=O)[O-])c(NCCc2ccc(OC)c(OC)c2)c2ccccc21 | -0.238 |

| SMILES | z-score |
| --- | --- |
| C=CCC1c2cccc(C(=O)O)c2C(=O)N1c1ccc(F)cc1 (configuration not stated) | -0.403 |
| O=C1/C(=C\c2ccccc2Cl)SC(=S)N1CCC(=O)N1CCCc2ccccc21 | -0.0232 |
| O=C(/C=C/c1c(Cl)cccc1Cl)Nc1ccncc1 | -0.208 |
| Cc1cc(Br)ccc1OCCCCNCCO | 0.946 |
| O=C(NCCCN1CCOCC1)c1c(O)c2cc(Br)cc(Br)c2[nH]c1=O | -0.0609 |
| Cc1c(C(c2cccc(O)c2)c2c(C)n(C)n(-c3ccccc3)c2=O)c(=O)n(-c2ccccc2)n1C | -0.297 |
| Cc1c(C(=O)NCCCN2CCCC2=O)oc2ccccc12 | -0.3 |
| COc1cccc(-n2c(Cc3cc(=O)[nH]c(=O)[nH]3)nnc2SCC(=O)NC2CCCCC2)c1 | -0.198 |
| Cc1ccc(S(=O)(=O)ON2C(=O)c3cccc4cccc(c34)C2=O)cc1 | -0.368 |
| Cc1ccc(-c2nnc3ccc(SCC(=O)N4CCc5ccccc54)nn23)cc1 | -0.87 |
| COC(=O)c1cc(NS(=O)(=O)c2ccc(N3CCCCC3)c([N+](=O)[O-])c2)cc(C(=O)OC)c1 | -0.0899 |
| O=C(NC1(C(F)(F)F)N=C2SCCN2C1=O)c1cccnc1 (configuration not stated) | -0.234 |
| N#Cc1ccccc1NC(=O)Nc1cccc(Cl)c1 | 0.496 |
| Cc1cc(C)cc(N(CCC(=O)O)S(=O)(=O)c2ccc(Cl)cc2)c1 | 0.192 |
| O=C(NCc1ccco1)C1CC(=O)N(c2ccc(O)cc2)C1 (configuration not stated) | -0.378 |
| Cc1cccc(Oc2ncnc(N)c2[N+](=O)[O-])c1C | -0.172 |
| Cc1cc(NC(=O)CSc2nc3ccc(Cl)cc3[nH]2)no1 | 0.0229 |
| Cc1cc(C)c2c(C)c(C(=O)NCc3ccncc3)oc2c1 | -2.52 |
| CCC(C(=O)Nc1ccncc1)c1ccccc1 (configuration not stated) | -0.281 |
| NC(=O)CSc1nnc(Cc2cccs2)n1C1CCCCC1 | -0.113 |
| COc1ccccc1C1CC(c2ccco2)=NN1c1ccccc1 (configuration not stated) | -0.166 |
| Cc1ccc2nc(-c3ccc(SCC(=O)Nc4nc(C)cs4)nc3)[nH]c2c1 | 0.228 |
| O=C(Cc1ccc(Cl)cc1Cl)Nc1cccc(S(=O)(=O)Nc2ccccc2F)c1 | 0.85 |

| SMILES | z-score |
| --- | --- |
| CONC(=O)Nc1ccccc1[N+](=O)[O-] | 1.4 |
| Cc1cccc(NC(=O)CC2NCCNC2=O)c1 (configuration not stated) | -0.726 |
| COc1ccc(-c2cc(C(=O)O)c3sc(N4CCCCC4)nc3n2)cc1OC | 0.117 |
| N=c1c(C(=O)NCc2ccc(F)cc2)cc2c(=O)n3ccccc3nc2n1CC1CCCO1 (configuration not stated) | 0.184 |
| CCOc1cccc2cc(C(=O)Nc3nccs3)c(=O)oc12 | -0.156 |
| C/C(=N\NC(=O)c1ccc(OC2CCCC2)cc1)c1ccc(C)s1 | 1.05 |
| Cc1ccc(-c2cc(C(=O)NCc3ccco3)no2)cc1 | 0.0404 |
| Cc1ccccc1-n1nc(C(=O)c2cccs2)cc(-c2nc3ccccc3[nH]2)c1=N | -0.286 |
| COc1ccc(S(=O)(=O)Nc2cc3c4c(oc3c3ccccc23)CC(C)(C)CC4=O)cc1 | -0.212 |
| CCn1cc(C(=O)C(F)(F)F)c2ccccc21 | -0.0439 |
| CCC1Oc2ccc(C)cc2N(CC(=O)N(Cc2cccnc2)Cc2cccc(F)c2)C1=O (configuration not stated) | -0.143 |
| O=C1[C@@H]2[C@H](C(=O)N1Cc1cccnc1)[C@H]1C=C[C@@H]2C1 | -0.0773 |
| Cc1ccc2oc(-c3cccc(NC(=O)Cc4cccs4)c3)nc2c1 | 0.0421 |
| CSCCC(NC(=O)C1CCC(C)CC1)C(=O)O (configuration not stated) | 0.17 |
| O/N=C/c1ccccc1Oc1ccccc1 | -0.288 |
| CC(NC(=O)Nc1nccs1)(C(F)(F)F)C(F)(F)F | 0.592 |
| CCOC(=O)c1c(C)n(C)c2ccc(O)c(CN3CCCCC3)c12 | 0.782 |
| COc1ccc(NS(=O)(=O)c2ccc3oc(SC4CCOC4=O)nc3c2)cc1 (configuration not stated) | -2.31 |
| COCCCn1c(SCC(=O)OC2CCCCC2)nnc1-c1cccs1 | 0.0234 |
| Cc1ccccc1-c1noc(-c2ccc(Cl)cc2)n1 | -0.0855 |
| CCCCNC(=O)C(Cc1ccccc1)NS(=O)(=O)c1ccc2c(c1)c(=O)n(C)c(=O)n2C (configuration not stated) | -0.0593 |
| Cc1nc(N)sc1N=Nc1ccc(Br)cc1 | -0.153 |
| O=C1CC(c2ccc(Cl)c(Cl)c2)CC(O)=C1C=NCCN1CCNCC1 (configuration not stated) | -0.194 |

| SMILES | z-score |
| --- | --- |
| CC(=O)c1c(C)nn(CC(O)COc2ccc3c(c2)CCC3)c1C (configuration not stated) | -0.289 |
| COC(=O)c1c(N)n(CCCN2CCOCC2)c2nc3ccccc3nc12 | -0.011 |
| COC(=O)c1cn[nH]c1NC(=S)Nc1ccc(C)cc1Cl | 0.195 |
| CCN(CC)c1ccc(/C=N/NC(=O)c2c(Cl)c(C)nn2C)cc1 | -0.21 |
| COc1ccc(CNC(=O)CN(Cc2ccc(Cl)cc2)S(=O)(=O)c2ccccc2)cc1 | -0.226 |
| Cc1ccc(CNC(=O)CSc2ccc(-c3cccs3)nn2)cc1 | 0.901 |
| Cc1ccccc1C(=O)c1c[nH]c(C(N)=O)c1 | -0.324 |
| CCOC(=O)CSc1cn2c(n1)CCC2 | 0.599 |
| O=C(Nc1ccon1)c1cc(-c2ccccc2)nc2ccccc12 | -1.67 |
| Cc1cc(C)c(NC(=O)CS(=O)CC(=O)NCCCc2ccccc2)c(C)c1 (configuration not stated) | 0.0707 |
| O=C(Nc1cccc2nsnc12)c1ccc(-c2ccc(Br)cc2)o1 | -0.0991 |
| Cc1noc(/C=C/N(C)C)c1S(=O)(=O)N1CCCC(C(=O)NC2CCCCC2C)C1 (configuration not stated) | 1.71 |
| O=C(Cn1cnc2ccccc2c1=O)NCCC(=O)N1CCN(c2ccccc2)CC1 | 0.0185 |
| CCCn1c(CCc2ccccc2)nnc1SCC(=O)N1CCOCC1 | -0.0332 |
| O=C(CCCN1C(=O)CCC1=O)Nc1ccc(Br)cc1F | -0.113 |
| CCC(COC(=O)Nc1cccc(C)c1)NC(=O)OCC(C)C (configuration not stated) | 0.0388 |
| O=C(c1ccc(COc2ccccc2[N+](=O)[O-])o1)N1CCCCC1 | -1.25 |
| CCC(C)(C)NC(=O)C(c1ccccc1F)N(Cc1ccco1)C(=O)c1csnn1 (configuration not stated) | -0.468 |
| Cc1ccc(OCC(=O)N/N=C/c2c[nH]c3ccccc23)c([N+](=O)[O-])c1 | 0.0177 |
| COCCN(CC(=O)Nc1cccc(C)c1)S(=O)(=O)c1ccc(S(=O)(=O)N2CCCC2)cc1 | 0.00397 |
